{"source": "the supplement of paper PMC11876631", "parents": {"B1": {"name": "thrA; numbered along this chain (parent)", "chain": "MRVLKFGGTSVANAERFLRVADILESNARQGQVATVLSAPAKITNHLVAMIEKTISGQDALPNISDAERIFAELLTGLAAAQPGFPLAQLKTFVDQEFAQIKHVLHGISLLGQCPDSINAALICRGEKMSIAIMAGVLEARGHNVTVIDPVEKLLAVGHYLESTVDIAESTRRIAASRIPADHMVLMAGFTAGNEKGELVVLGRNGSDYSAAVLAACLRADCCEIWTDVDGVYTCDPRQVPDARLLKSMSYQEAMELSYFGAKVLHPRTITPIAQFQIPCLIKNTGNPQAPGTLIGASRDEDELPVKGISNLNNMAMFSVSGPGMKGMVGMAARVFAAMSRARISVVLITQSSSEYSISFCVPQSDCVRAERAMQEEFYLELKEGLLEPLAVTERLAIISVVGDGMRTLRGISAKFFAALARANINIVAIAQGSSERSISVVVNNDDATTGVRVTHQMLFNTDQVIEVFVIGVGGVGGALLEQLKRQQSWLKNKHIDLRVCGVANSKALLTNVHGLNLENWQEELAQAKEPFNLGRLIRLVKEYHLLNPVIVDCTSSQAVADQYADFLREGFHVVTPNKKANTSSMDYYHQLRYAAEKSRRKFLYDTNVGAGLPVIENLQNLLNAGDELMKFSGILSGSLSYIFGKLDEGMSFSEATTLAREMGYTEPDPRDDLSGMDVARKLLILARETGRELELADIEIEPVLPAEFNAEGDVAAFMANLSQLDDLFAARVAKARDEGKVLRYVGNIDEDGVCRVKIAEVDGNDPLFKVKNGENALAFYSHYYQPLPLVLRGYGAGNDVTAAGVFADLLRTLSWKLGV"}, "B2": {"name": "lexA; numbered along this chain (parent)", "chain": "MKALTARQQEVFDLIRDHISQTGMPPTRAEIAQRLGFRSPNAAEEHLKALARKGVIEIVSGASRGIRLLQEEEEGLPLVGRVAAGEPLLAQQHIEGHYQVDPSLFKPNADFLLRVSGMSMKDIGIMDGDLLAVHKTQDVRNGQVVVARIDDEVTVKRLKKQGNKVELLPENSEFKPIVVDLRQQSFTIEGLAVGVIRNGDWL"}, "B3": {"name": "ppa; numbered along this chain (parent)", "chain": "MSLLNVPAGKDLPEDIYVVIEIPANADPIKYEIDKESGALFVDRFMSTAMFYPCNYGYINHTLSLDGDPVDVLVPTPYPLQPGSVIRCRPVGVLKMTDEAGEDAKLVAVPHSKLSKEYDHIKDVNDLPELLKAQIAHFFEHYKDLEKGKWVKVEGWENAEAAKAEIVASFERAKNK"}}, "note": "± gives the standard deviation of the averaged measurements. Laboratory Escherichia coli strains with one amino-acid change in an essential protein, pooled on minimal glucose agar with carbenicillin or gentamicin at twice the control MIC (plus kanamycin and chloramphenicol for the plasmids), 48 h. Fold change of barcode share against drug-free plates; higher = less susceptible. Active = above 20 in both replicates (the paper's putatively resistant). '<' = one read or none on drug, '>' = one read or none on a drug-free plate. Shares are relative, so most strains fall below 1 when a few take over. Listed are strains with at least 15 reads on both drug-free plates, and hits; most hits rest on fewer reference reads. Replicate rank correlation about 0.5. Edits are read from barcodes."}
{"variants_of": "B1", "assay": "barcode share on antibiotic plates over drug-free plates; higher = less susceptible", "settings": "with Escherichia coli (laboratory strain); antibiotic: carbenicillin; 2× MIC (3.1 µg/mL)", "procedure": "(§1)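 A pool of E. coli strains, each edited to carry one amino-acid change in an essential protein, was grown for 48 h on minimal glucose agar with or without antibiotic; strain barcodes were sequenced; mean of two replicates.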"}
{"variant": "I349Q", "fold change of barcode share": "1.28 ± 0.37"}
{"variant": "I399W", "fold change of barcode share": "0.914 ± 0.32"}
{"variant": "L348P", "fold change of barcode share": "1.57 ± 0.29"}
{"variant": "F336W", "fold change of barcode share": "0.914 ± 0.4"}
{"variant": "V443A", "fold change of barcode share": "1.68 ± 0.31"}
{"variant": "V443Q", "fold change of barcode share": "2.08 ± 0.22"}
{"variant": "V346D", "fold change of barcode share": "1.79 ± 0.05"}
{"variant": "F336D", "fold change of barcode share": "1.85 ± 1.2"}
{"variant": "L348W", "fold change of barcode share": "1.6 ± 0.6"}
{"variant": "I399A", "fold change of barcode share": "1.12 ± 0.4"}
{"variant": "V442A", "fold change of barcode share": "2 ± 0.46"}
{"variant": "V346Q", "fold change of barcode share": "0.507 ± 0.31"}
{"variant": "I349W", "fold change of barcode share": "1.57 ± 0.64"}
{"variant": "I349D", "fold change of barcode share": "2.11 ± 1.5"}
{"variant": "I399P", "fold change of barcode share": "0.953 ± 0.25"}
{"variant": "I349A", "fold change of barcode share": "1.81 ± 0.39"}
{"variant": "I399D", "fold change of barcode share": "1.22 ± 0.1"}
{"variant": "F318W", "fold change of barcode share": "1.3 ± 0.0037"}
{"variants_of": "B1", "assay": "barcode share on antibiotic plates over drug-free plates; higher = less susceptible", "settings": "with Escherichia coli (laboratory strain); antibiotic: gentamicin; 2× MIC (MIC 0.45 µg/mL)", "procedure": "as §1"}
{"variant": "I349Q", "fold change of barcode share": "0.00691 ± 0.0011"}
{"variant": "I399W", "fold change of barcode share": "0.013 ± 0.0024"}
{"variant": "L348P", "fold change of barcode share": "0.0127 ± 0.0077"}
{"variant": "F336W", "fold change of barcode share": "0.00602 ± 0.0032"}
{"variant": "V443A", "fold change of barcode share": "0.00925 ± 0.0047"}
{"variant": "V443Q", "fold change of barcode share": "0.0128 ± 0.003"}
{"variant": "V346D", "fold change of barcode share": "< 0.0159"}
{"variant": "F336D", "fold change of barcode share": "0.00729 ± 0.0029"}
{"variant": "L348W", "fold change of barcode share": "0.00624 ± 0.0037"}
{"variant": "I399A", "fold change of barcode share": "0.00752 ± 0.0052"}
{"variant": "V442A", "fold change of barcode share": "0.0189 ± 0.013"}
{"variant": "V346Q", "fold change of barcode share": "< 0.0146"}
{"variant": "I349W", "fold change of barcode share": "0.00799 ± 0.0012"}
{"variant": "I349D", "fold change of barcode share": "0.0142 ± 0.0092"}
{"variant": "I399P", "fold change of barcode share": "0.0159 ± 0.018"}
{"variant": "I349A", "fold change of barcode share": "0.00694 ± 0.0042"}
{"variant": "I399D", "fold change of barcode share": "0.0117 ± 0.011"}
{"variant": "F318W", "fold change of barcode share": "0.014 ± 0.00096"}
{"variants_of": "B2", "assay": "barcode share on antibiotic plates over drug-free plates; higher = less susceptible", "settings": "with Escherichia coli (laboratory strain); antibiotic: carbenicillin; 2× MIC (3.1 µg/mL)", "procedure": "as §1"}
{"variant": "I31A", "fold change of barcode share": "0.325 ± 0.079"}
{"variant": "L47A", "fold change of barcode share": "1.39 ± 1.8"}
{"variant": "L47D", "fold change of barcode share": "0.557 ± 0.52"}
{"variant": "L47P", "fold change of barcode share": "0.407 ± 0.35"}
{"variant": "L47Q", "fold change of barcode share": "0.392 ± 0.1"}
{"variant": "L47W", "fold change of barcode share": "0.403 ± 0.073"}
{"variant": "V82A", "fold change of barcode share": "0.398 ± 0.13"}
{"variant": "V82Q", "fold change of barcode share": "0.241 ± 0.076"}
{"variant": "V144P", "fold change of barcode share": "0.257 ± 0.15"}
{"variant": "V155A", "fold change of barcode share": "1.62 ± 0.094"}
{"variant": "V155D", "fold change of barcode share": "0.802 ± 0.92"}
{"variant": "V155P", "fold change of barcode share": "0.203 ± 0.16"}
{"variant": "V155W", "fold change of barcode share": "0.107 ± 0.0074"}
{"variant": "V193A", "fold change of barcode share": "0.3 ± 0.13"}
{"variant": "V193D", "fold change of barcode share": "0.219 ± 0.089"}
{"variant": "V193P", "fold change of barcode share": "0.277 ± 0.18"}
{"variant": "V193Q", "fold change of barcode share": "0.228 ± 0.14"}
{"variant": "V193W", "fold change of barcode share": "0.432 ± 0.0079"}
{"variant": "I196W", "fold change of barcode share": "0.736 ± 0.69"}
{"variants_of": "B2", "assay": "barcode share on antibiotic plates over drug-free plates; higher = less susceptible", "settings": "with Escherichia coli (laboratory strain); antibiotic: gentamicin; 2× MIC (MIC 0.45 µg/mL)", "procedure": "as §1"}
{"variant": "I31A", "fold change of barcode share": "< 0.00619"}
{"variant": "L47A", "fold change of barcode share": "0.0185 ± 0.016"}
{"variant": "L47D", "fold change of barcode share": "< 0.00901"}
{"variant": "L47P", "fold change of barcode share": "< 0.00882"}
{"variant": "L47Q", "fold change of barcode share": "0.0167 ± 0.0003"}
{"variant": "L47W", "fold change of barcode share": "< 0.0184"}
{"variant": "V82A", "fold change of barcode share": "< 0.00781"}
{"variant": "V82Q", "fold change of barcode share": "< 0.0161"}
{"variant": "V144P", "fold change of barcode share": "0.013 ± 0.0033"}
{"variant": "V155A", "fold change of barcode share": "< 0.00938"}
{"variant": "V155D", "fold change of barcode share": "< 0.0147"}
{"variant": "V155P", "fold change of barcode share": "< 0.0153"}
{"variant": "V155W", "fold change of barcode share": "< 0.00964"}
{"variant": "V193A", "fold change of barcode share": "0.00607 ± 0.00056"}
{"variant": "V193D", "fold change of barcode share": "< 0.0178"}
{"variant": "V193P", "fold change of barcode share": "< 0.00789"}
{"variant": "V193Q", "fold change of barcode share": "< 0.0143"}
{"variant": "V193W", "fold change of barcode share": "0.0316 ± 0.0079"}
{"variant": "I196W", "fold change of barcode share": "0.0224 ± 0.021"}
{"variant": "V82P", "fold change of barcode share": "< 0.0121"}
{"variant": "V82W", "fold change of barcode share": "< 0.0155"}
{"variant": "V144W", "fold change of barcode share": "0.00755 ± 0.0032"}
{"variant": "I196P", "fold change of barcode share": "< 0.0127"}
{"variant": "I196Q", "fold change of barcode share": "< 0.0124"}
{"variants_of": "B3", "assay": "barcode share on antibiotic plates over drug-free plates; higher = less susceptible", "settings": "with Escherichia coli (laboratory strain); antibiotic: carbenicillin; 2× MIC (3.1 µg/mL)", "procedure": "as §1"}
{"variant": "V72W", "fold change of barcode share": "0.329 ± 0.012"}
{"variant": "V72Q", "fold change of barcode share": "0.353 ± 0.12"}
{"variant": "L73A", "fold change of barcode share": "0.321 ± 0.0098"}
{"variant": "V19A", "fold change of barcode share": "0.237 ± 0.065"}
{"variant": "V72D", "fold change of barcode share": "0.267 ± 0.1"}
{"variant": "V72P", "fold change of barcode share": "0.445 ± 0.034"}
{"variant": "L73Q", "fold change of barcode share": "0.317 ± 0.085"}
{"variant": "I22Q", "fold change of barcode share": "1.06 ± 0.62"}
{"variant": "V70Q", "fold change of barcode share": "0.245 ± 0.042"}
{"variant": "I22A", "fold change of barcode share": "0.482 ± 0.17"}
{"variant": "L94A", "fold change of barcode share": "0.209 ± 0.0035"}
{"variant": "V72A", "fold change of barcode share": "0.26 ± 0.13"}
{"variant": "L73W", "fold change of barcode share": "0.241 ± 0.069"}
{"variant": "V70A", "fold change of barcode share": "0.271 ± 0.034"}
{"variant": "L94Q", "fold change of barcode share": "0.331 ± 0.051"}
{"variant": "V70P", "fold change of barcode share": "0.319 ± 0.031"}
{"variants_of": "B3", "assay": "barcode share on antibiotic plates over drug-free plates; higher = less susceptible", "settings": "with Escherichia coli (laboratory strain); antibiotic: gentamicin; 2× MIC (MIC 0.45 µg/mL)", "procedure": "as §1"}
{"variant": "V72W", "fold change of barcode share": "0.0177 ± 0.017"}
{"variant": "V72Q", "fold change of barcode share": "< 0.0102"}
{"variant": "L73A", "fold change of barcode share": "0.00554 ± 0.0016"}
{"variant": "V19A", "fold change of barcode share": "0.0329 ± 0.033"}
{"variant": "V72D", "fold change of barcode share": "0.0097 ± 0.0092"}
{"variant": "V72P", "fold change of barcode share": "< 0.0138"}
{"variant": "L73Q", "fold change of barcode share": "< 0.00415"}
{"variant": "I22Q", "fold change of barcode share": "0.0127 ± 0.0045"}
{"variant": "V70Q", "fold change of barcode share": "0.00728 ± 0.0021"}
{"variant": "I22A", "fold change of barcode share": "0.154 ± 0.21"}
{"variant": "L94A", "fold change of barcode share": "< 0.00332"}
{"variant": "V72A", "fold change of barcode share": "0.0064 ± 0.0046"}
{"variant": "L73W", "fold change of barcode share": "0.145 ± 0.2"}
{"variant": "V70A", "fold change of barcode share": "0.00603 ± 0.0067"}
{"variant": "L94Q", "fold change of barcode share": "0.00677 ± 0.002"}
{"variant": "V70P", "fold change of barcode share": "0.0167 ± 0.019"}
